From paper PMC10449733 (EJNMMI Physics, 2023)
Read-outs that look alike come from different tables or passages of the source.

Columns and labels:
[1] = cited from earlier work; for BMAX compartment 2 (maximum binding capacity, spleen) / BMAX compartment 3 (maximum binding capacity, kidney) / BMAX compartment 4 (maximum binding capacity, tumor) / BMAX compartment 5 (maximum binding capacity, SSTR-expressing organs): SSTR receptor expression; for k15 (uptake rate blood to other SSTR-expressing organs) / k16 (rate blood to rest compartment): assumed similar for both agents
Excerpt: (§1) All model parameters were fixed, since our single-time-point data were limited to estimate PK parameters, and most parameters were based on the previously developed PBPK model.

[2] = patients receiving an amino acid solution during administration; cited from earlier work
[3] = Semi-physiological population PK model (six-compartment NLMEM, NONMEM) informed by patient imaging data; assay type: in vivo, human
Description: Using this approach, differences in population PK parameters between both radiopharmaceuticals were determined. First, a population PK model of [^68Ga]Ga-HA-DOTATATE was developed fully informed by a previously developed PBPK model. Subsequently, the model structure was applied to [^177Lu]Lu-HA-DOTATATE and parameters describing differences between both radiopharmaceuticals were estimated.
The first step of our approach was to develop a semi-physiological model for [^68Ga]Ga-HA-DOTATATE. Structural model development was informed based on a previously published PBPK model, where compartments were lumped based on their SSTR-expressing nature. […] Compartment five consisted of the lungs, pancreas, stomach, thyroid and liver. Structural model parameters were based on estimates from a previously published PBPK model. Organ volumes were fixed for all patients and derived from the ICRP Publication 89 adult human model. The tumor compartment volume was based on individual measured tumor volumes and consisted of the sum of volumes of all segmented tumors (based on).
The stochastic or statistical model accounted for inter-individual variability (IIV) and residual unexplained variability. For [^68Ga]Ga-HA-DOTATATE, IIV was added to uptake rate parameters. IIV was fixed based on assumed population variability, using information from ranges included in the previously developed PBPK model, assumed variability in uptake in organs and tumors based on clinical observations and estimated IIV in previously published population PK models for radiolabeled SSAs. IIV was modeled using an exponential distribution according to Eq. 2, while a proportional error model described the residual error according to Eq. 3.2 Pi=Ppop∗e^ηi 3 Cobs,ij=Cpred,ij∗(1+εp,ij) where Pi represents the individual PK parameter, Ppop represents the population PK parameter, and ηi represents the IIV effect for the ith individual with mean 0 and variance ω^2. Cobs represents the observed concentration and Cpred the predicted concentration for the ith individual and the jth measurement, and εp the proportional error with mean 0 and variance σ^2 for the ith individual and the jth measurement.
Factors known to affect PK parameters were added to the model a priori, since model development was based on fixed parameters rather than estimated based on data. Radiopharmaceutical distribution in NET patients might be impacted by a tumor sink effect, which reflects a reduced uptake in healthy tissues due to a high burden of disease. Therefore, the tumor sink effect was included in the model following Eq. 4, where the extent of this effect was based on previous PBPK simulations. In addition, a larger tumor volume is expected to increase tumor uptake, as was also shown for [^68Ga]Ga-PSMA-11 [34].
as §1, with “A bottom-up approach was used for [^68Ga]Ga-HA-DOTATATE model development and patient imaging data were only used for model evaluation. All” for “All”

[4] = Observed tumor and kidney AUC from post-administration imaging (planar scintigraphy, SPECT/CT); assay type: in vivo, human; details: 0 to last measurement, four post-administration images, first cycle ~7.4 GBq
Description: Diagnostic PET/CT imaging was performed at ~45 min post-injection of ~100 MBq [^68Ga]Ga-HA-DOTATATE. […] Patient selection, data acquisition and data analysis were described previously. Individual accumulation data for spleen, kidneys and tumor lesions were available, whereas no blood samples were drawn. For tumors, only lesions with a diameter >2 cm and a maximum of five segmented lesions of which two per organ system per patient (i.e., target tumors) were included for model development. […] All tumor volumes were determined based on PET/CT imaging using IntelliSpace Portal (Philips Healthcare, The Netherlands) with a semi-automatic threshold segmentation method of 50% SUVmax. Decay corrected peptide concentrations (µg/L) were used for model development and evaluation, which were calculated based on the measured radioactivity per volume and the administered specific activities (MBq/µg) (using total administered peptide amounts).

[5] = Observed tumor and kidney absorbed dose (MIRD formalism); assay type: in vivo, human; details: first cycle ~7.4 GBq
Description: Absorbed doses for kidney and tumor were determined to evaluate the predicted energy deposited in the irradiated tissue. For this, time-integrated activity (TIA) (MBq*h) was determined using calculated AUCs (µg*h/L) in kidney and tumors, organ and tumor volumes (L) and injected specific activity (MBq/µg). The TIA was extrapolated to infinite time based on the calculated excretion rate per individual. After this, absorbed doses were calculated following the Medical Internal Radiation Dose (MIRD) formalism. Organ weights that were used for absorbed dose calculations were based on the ICRP Publication 89 adult male human model and corresponding S values were derived from IDAC-Dose 2.1 [27, 39]. For tumors, individual tumor volumes and a tissue density of 1.05 g/cm^3 were used to determine the corresponding S value.

[6] = population value from the estimated fold difference vs [^68Ga]Ga-HA-DOTATATE, nine NET patients
[7] = patient ID3, TIA extrapolated to infinite time
[8] = patient ID4, TIA extrapolated to infinite time
[9] = patient ID5, TIA extrapolated to infinite time
[10] = patient ID6, TIA extrapolated to infinite time
[11] = patient ID7, TIA extrapolated to infinite time
[12] = patient ID8, TIA extrapolated to infinite time
[13] = patient ID9, TIA extrapolated to infinite time
[14] = patient ID10, TIA extrapolated to infinite time

## [^68Ga]Ga-HA-DOTATATE
[1]; fixed
  BMAX compartment 2 (maximum binding capacity, spleen): 16.7 nmol/L
  BMAX compartment 3 (maximum binding capacity, kidney): 6.7 nmol/L
  BMAX compartment 4 (maximum binding capacity, tumor): 30 nmol/L
  BMAX compartment 5 (maximum binding capacity, SSTR-expressing organs): 2.4 nmol/L
  k15 (uptake rate blood to other SSTR-expressing organs): 2.5 h⁻¹
  k16 (rate blood to rest compartment): 1 h⁻¹
  Fraction unbound in plasma: 0.69
  k20 (degradation rate constant, spleen): 0.01 h⁻¹
  k30 (degradation rate constant, kidney): 0.01 h⁻¹
  k40 (degradation rate constant, tumor): 0.01 h⁻¹
  k50 (degradation rate constant, SSTR-expressing compartment): 0.01 h⁻¹
  k60 (degradation rate constant, rest compartment): 0.01 h⁻¹
[1]; fixed parameter, NET patients, no kidney protection
  k10 (renal excretion rate constant): 0.25 h⁻¹
[1]; fixed population parameter
  k12 (uptake rate blood to spleen): 0.21 h⁻¹
  k13 (uptake rate blood to kidney): 0.22 h⁻¹
  k14 (uptake rate blood to tumor): 0.11 h⁻¹
[1]; power exponent eff of Eq. 5, fixed
  Structural effect of tumor volume on k14: 1

## [^177Lu]Lu-DOTATATE
[2]
  clearance: 2.3 L/h

## [^177Lu]Lu-HA-DOTATATE
[3]; population value from the estimated fold difference vs [^68Ga]Ga-HA-DOTATATE, first kidney time point excluded, amino acid co-infusion
  k13 (uptake rate blood to kidney): 0.107 h⁻¹
[3]; [6]
  k14 (uptake rate blood to tumor): 0.157 h⁻¹
  k40 (degradation rate constant, tumor): 0.00375 h⁻¹
[3]; population value from the estimated fold difference vs [^68Ga]Ga-HA-DOTATATE, nine NET patients, four imaging time points
  k12 (uptake rate blood to spleen): 0.0607 h⁻¹
[3]; power exponent eff of Eq. 5, estimated from nine NET patients, RSE% in brackets
  Structural effect of tumor volume on k14: 0.67 (17%)
[4]; patient ID2
  Tumor AUC0-tlast, observed: 3320 ng·h/mL
[4]; patient ID3
  Kidney AUC0-tlast, observed: 520 ng·h/mL
  Tumor AUC0-tlast, observed: 2090 ng·h/mL
[4]; patient ID4
  Kidney AUC0-tlast, observed: 634 ng·h/mL
  Tumor AUC0-tlast, observed: 5290 ng·h/mL
[4]; patient ID5
  Kidney AUC0-tlast, observed: 334 ng·h/mL
  Tumor AUC0-tlast, observed: 4690 ng·h/mL
[4]; patient ID6
  Kidney AUC0-tlast, observed: 902 ng·h/mL
  Tumor AUC0-tlast, observed: 1380 ng·h/mL
[4]; patient ID7
  Kidney AUC0-tlast, observed: 564 ng·h/mL
  Tumor AUC0-tlast, observed: 2800 ng·h/mL
[4]; patient ID8
  Kidney AUC0-tlast, observed: 443 ng·h/mL
  Tumor AUC0-tlast, observed: 2940 ng·h/mL
[4]; patient ID9
  Kidney AUC0-tlast, observed: 764 ng·h/mL
  Tumor AUC0-tlast, observed: 1760 ng·h/mL
[4]; patient ID10
  Kidney AUC0-tlast, observed: 621 ng·h/mL
  Tumor AUC0-tlast, observed: 2590 ng·h/mL
[5]; patient ID2, TIA extrapolated to infinite time
  Tumor absorbed dose, observed: 24.4 Gy
[5]; [7]
  Kidney absorbed dose, observed: 3.12 Gy
  Tumor absorbed dose, observed: 14.4 Gy
[5]; [8]
  Kidney absorbed dose, observed: 2.21 Gy
  Tumor absorbed dose, observed: 29.3 Gy
[5]; [9]
  Kidney absorbed dose, observed: 1.19 Gy
  Tumor absorbed dose, observed: 38.3 Gy
[5]; [10]
  Kidney absorbed dose, observed: 5.38 Gy
  Tumor absorbed dose, observed: 8.67 Gy
[5]; [11]
  Kidney absorbed dose, observed: 3.92 Gy
  Tumor absorbed dose, observed: 34.4 Gy
[5]; [12]
  Kidney absorbed dose, observed: 3.79 Gy
  Tumor absorbed dose, observed: 19.5 Gy
[5]; [13]
  Kidney absorbed dose, observed: 4.41 Gy
  Tumor absorbed dose, observed: 12.4 Gy
[5]; [14]
  Kidney absorbed dose, observed: 3.71 Gy
  Tumor absorbed dose, observed: 27.7 Gy
[1]; fixed
  BMAX compartment 2 (maximum binding capacity, spleen): 16.7 nmol/L
  BMAX compartment 3 (maximum binding capacity, kidney): 6.7 nmol/L
  BMAX compartment 4 (maximum binding capacity, tumor): 30 nmol/L
  BMAX compartment 5 (maximum binding capacity, SSTR-expressing organs): 2.4 nmol/L
  k15 (uptake rate blood to other SSTR-expressing organs): 2.5 h⁻¹
  k16 (rate blood to rest compartment): 1 h⁻¹
  Fraction unbound in plasma: 0.57
  k20 (degradation rate constant, spleen): 0.01 h⁻¹
  k30 (degradation rate constant, kidney): 0.01 h⁻¹
  k50 (degradation rate constant, SSTR-expressing compartment): 0.01 h⁻¹
  k60 (degradation rate constant, rest compartment): 0.01 h⁻¹
[1]; fixed, based on a clearance value of 2.3 L/h, patients receiving amino acid solution
  k10 (renal excretion rate constant): 0.575 h⁻¹
